This is one part of the list.

The experiment has as its target T1, MBP-FoxP1dN (Mus musculus, UniProt P58462 326-579).
T1 sequence: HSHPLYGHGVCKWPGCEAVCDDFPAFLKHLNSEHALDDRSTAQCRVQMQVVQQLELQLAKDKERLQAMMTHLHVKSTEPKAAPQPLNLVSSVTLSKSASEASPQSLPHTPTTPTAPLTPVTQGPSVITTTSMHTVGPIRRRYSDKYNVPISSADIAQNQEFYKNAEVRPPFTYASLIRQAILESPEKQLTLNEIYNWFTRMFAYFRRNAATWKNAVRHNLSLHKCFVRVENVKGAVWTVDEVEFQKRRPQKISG
In words: PD-seq (MBP pull-down with sequencing); 20 mM Tris-HCl pH 7.5, 100 mM NaCl, 1.5 mM MgCl2, 0.4 uM protein, 0.1 uM dsDNA library, 30 min, room temperature, amylose pull-down; high values mean tight binding. The settings on record: protein: recombinant; tags: His6-MBP; chain copies: 2; dsDNA, one strand shown. The method, boiled down: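 Protein and DNA were mixed at 0.4 µM and 0.1 µM and held for 30 min at room temperature in Tris pH 7.5 buffer with NaCl and MgCl2; the protein was a His6-MBP-tagged, N-terminally truncated mouse FoxP3 or FoxP1 fragment from E. coli, and the DNA a Klenow-filled double-stranded degenerate library. Amylose resin captured the complexes, which were washed three times. Binding is read as reads-per-million enrichment of pull-down versus input after Illumina sequencing, with replicates pooled.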
On to “GATGATTGTTCTCCCAGCTGATGAATTTCGGAGATCGAGTAAACAAATTTTCCTAATCTTTCTGTTCAAGCGCCATCTAC”, for which the binding signal was 0.836 RPM ratio (pull-down/input).
For “GATGATTGTTCTCCCAGCTGATGAATTGTTGGCTTCGAGTAAACAAATTTTCCTAATCTTTCTGTTCAAGCGCCATCTAC” the value was 1.3 RPM ratio (pull-down/input); for “GATGATTGTTCTCCCAGCTGATGAATTGCATGTCTCGAGTAAACAAATTTTCCTAATCTTTCTGTTCAAGCGCCATCTAC”, 1.19 RPM ratio (pull-down/input); for “GATGATTGTTCTCCCAGCTGATGAATTAGCCCATTCGAGTAAACAAATTTTCCTAATCTTTCTGTTCAAGCGCCATCTAC”, 0.917 RPM ratio (pull-down/input).
For “GATGATTGTTCTCCCAGCTGATGAATTGGCGCCGTCGAGTAAACAAATTTTCCTAATCTTTCTGTTCAAGCGCCATCTAC” the value was 0.823 RPM ratio (pull-down/input); for “GATGATTGTTCTCCCAGCTGATGAATTGCCATGATCGAGTAAACAAATTTTCCTAATCTTTCTGTTCAAGCGCCATCTAC”, 0.997 RPM ratio (pull-down/input); for “GATGATTGTTCTCCCAGCTGATGAATTATTCGTGTCGAGTAAACAAATTTTCCTAATCTTTCTGTTCAAGCGCCATCTAC”, 1.04 RPM ratio (pull-down/input).
To “GATGATTGTTCTCCCAGCTGATGAATTAATTCCCTCGAGTAAACAAATTTTCCTAATCTTTCTGTTCAAGCGCCATCTAC” belongs 0.912 RPM ratio (pull-down/input); to “GATGATTGTTCTCCCAGCTGATGAATTCGACACTTCGAGTAAACAAATTTTCCTAATCTTTCTGTTCAAGCGCCATCTAC”, 0.882 RPM ratio (pull-down/input); to “GATGATTGTTCTCCCAGCTGATGAATTGCCGCTATCGAGTAAACAAATTTTCCTAATCTTTCTGTTCAAGCGCCATCTAC”, 0.959 RPM ratio (pull-down/input).
Consider “GATGATTGTTCTCCCAGCTGATGAATTGGCGAGGTCGAGTAAACAAATTTTCCTAATCTTTCTGTTCAAGCGCCATCTAC”, for which the binding signal is 0.81 RPM ratio (pull-down/input).
On to “GATGATTGTTCTCCCAGCTGATGAATTACCCAAGTCGAGTAAACAAATTTTCCTAATCTTTCTGTTCAAGCGCCATCTAC”, for which the binding signal is 0.823 RPM ratio (pull-down/input).
For “GATGATTGTTCTCCCAGCTGATGAATTCGTCATCTCGAGTAAACAAATTTTCCTAATCTTTCTGTTCAAGCGCCATCTAC” the value was 0.846 RPM ratio (pull-down/input); for “GATGATTGTTCTCCCAGCTGATGAATTCCCCTAATCGAGTAAACAAATTTTCCTAATCTTTCTGTTCAAGCGCCATCTAC”, 1.01 RPM ratio (pull-down/input); for “GATGATTGTTCTCCCAGCTGATGAATTTGGCCACTCGAGTAAACAAATTTTCCTAATCTTTCTGTTCAAGCGCCATCTAC”, 0.901 RPM ratio (pull-down/input).
As to “GATGATTGTTCTCCCAGCTGATGAATTCGGTGCTTCGAGTAAACAAATTTTCCTAATCTTTCTGTTCAAGCGCCATCTAC”, the binding signal is 0.903 RPM ratio (pull-down/input).
Consider “GATGATTGTTCTCCCAGCTGATGAATTTCCATTTTCGAGTAAACAAATTTTCCTAATCTTTCTGTTCAAGCGCCATCTAC”, for which the binding signal is 0.933 RPM ratio (pull-down/input).
To “GATGATTGTTCTCCCAGCTGATGAATTCGGAAGATCGAGTAAACAAATTTTCCTAATCTTTCTGTTCAAGCGCCATCTAC” belongs 0.815 RPM ratio (pull-down/input); to “GATGATTGTTCTCCCAGCTGATGAATTGAATAGCTCGAGTAAACAAATTTTCCTAATCTTTCTGTTCAAGCGCCATCTAC”, 0.857 RPM ratio (pull-down/input); to “GATGATTGTTCTCCCAGCTGATGAATTAACAGTGTCGAGTAAACAAATTTTCCTAATCTTTCTGTTCAAGCGCCATCTAC”, 1.04 RPM ratio (pull-down/input).
For “GATGATTGTTCTCCCAGCTGATGAATTCAAGAATTCGAGTAAACAAATTTTCCTAATCTTTCTGTTCAAGCGCCATCTAC” the value was 0.87 RPM ratio (pull-down/input); for “GATGATTGTTCTCCCAGCTGATGAATTATTGAGTTCGAGTAAACAAATTTTCCTAATCTTTCTGTTCAAGCGCCATCTAC”, 1.05 RPM ratio (pull-down/input); for “GATGATTGTTCTCCCAGCTGATGAATTCACTCAGTCGAGTAAACAAATTTTCCTAATCTTTCTGTTCAAGCGCCATCTAC”, 0.85 RPM ratio (pull-down/input).
For “GATGATTGTTCTCCCAGCTGATGAATTATAAGGATCGAGTAAACAAATTTTCCTAATCTTTCTGTTCAAGCGCCATCTAC” the value was 0.941 RPM ratio (pull-down/input); for “GATGATTGTTCTCCCAGCTGATGAATTACCGTCATCGAGTAAACAAATTTTCCTAATCTTTCTGTTCAAGCGCCATCTAC”, 1.06 RPM ratio (pull-down/input).
In the case of “GATGATTGTTCTCCCAGCTGATGAATTCCTGTGTTCGAGTAAACAAATTTTCCTAATCTTTCTGTTCAAGCGCCATCTAC”, the binding signal was 1.26 RPM ratio (pull-down/input).
For “GATGATTGTTCTCCCAGCTGATGAATTTGTGTCATCGAGTAAACAAATTTTCCTAATCTTTCTGTTCAAGCGCCATCTAC” the value was 1.48 RPM ratio (pull-down/input).
Turning to “GATGATTGTTCTCCCAGCTGATGAATTACCTCCCTCGAGTAAACAAATTTTCCTAATCTTTCTGTTCAAGCGCCATCTAC”, the binding signal was 0.849 RPM ratio (pull-down/input).
For “GATGATTGTTCTCCCAGCTGATGAATTCATTAGTTCGAGTAAACAAATTTTCCTAATCTTTCTGTTCAAGCGCCATCTAC” the value was 0.867 RPM ratio (pull-down/input); for “GATGATTGTTCTCCCAGCTGATGAATTTTGTGTTTCGAGTAAACAAATTTTCCTAATCTTTCTGTTCAAGCGCCATCTAC”, 1.58 RPM ratio (pull-down/input); for “GATGATTGTTCTCCCAGCTGATGAATTTCCCCCTTCGAGTAAACAAATTTTCCTAATCTTTCTGTTCAAGCGCCATCTAC”, 0.831 RPM ratio (pull-down/input).
With “GATGATTGTTCTCCCAGCTGATGAATTAAGAGCTTCGAGTAAACAAATTTTCCTAATCTTTCTGTTCAAGCGCCATCTAC”, the binding signal is 0.869 RPM ratio (pull-down/input).
For “GATGATTGTTCTCCCAGCTGATGAATTAGGGAGTTCGAGTAAACAAATTTTCCTAATCTTTCTGTTCAAGCGCCATCTAC” the value was 0.811 RPM ratio (pull-down/input); for “GATGATTGTTCTCCCAGCTGATGAATTTCCAATATCGAGTAAACAAATTTTCCTAATCTTTCTGTTCAAGCGCCATCTAC”, 1.02 RPM ratio (pull-down/input).
For “GATGATTGTTCTCCCAGCTGATGAATTGAAACCATCGAGTAAACAAATTTTCCTAATCTTTCTGTTCAAGCGCCATCTAC” the value was 0.943 RPM ratio (pull-down/input); for “GATGATTGTTCTCCCAGCTGATGAATTAGTCTACTCGAGTAAACAAATTTTCCTAATCTTTCTGTTCAAGCGCCATCTAC”, 0.853 RPM ratio (pull-down/input).
For “GATGATTGTTCTCCCAGCTGATGAATTTACACGCTCGAGTAAACAAATTTTCCTAATCTTTCTGTTCAAGCGCCATCTAC” the value was 1.17 RPM ratio (pull-down/input); for “GATGATTGTTCTCCCAGCTGATGAATTGCTAAAATCGAGTAAACAAATTTTCCTAATCTTTCTGTTCAAGCGCCATCTAC”, 1.28 RPM ratio (pull-down/input).
For the sequence “GATGATTGTTCTCCCAGCTGATGAATTAAACCGTTCGAGTAAACAAATTTTCCTAATCTTTCTGTTCAAGCGCCATCTAC”, the binding signal was 0.979 RPM ratio (pull-down/input).
To “GATGATTGTTCTCCCAGCTGATGAATTCGCGGCGTCGAGTAAACAAATTTTCCTAATCTTTCTGTTCAAGCGCCATCTAC” belongs 0.934 RPM ratio (pull-down/input).

The record behind these values is paper PMC12820563, “FoxP3 forms a head-to-head dimer in vivo and stabilizes its multimerization on adjacent microsatellites”.
